Measurements published in the supplement of paper PMC11417369.
Some of the results follow.

System: PfSIP2 AP2 domain 1 (GST-tagged)
Experiment: gcPBM binding intensity (ln(normalized median fluorescence intensity)); higher = stronger DNA binding
In short: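 Binding intensity values are the highest Masliner-normalised natural-log median intensity among replicate spots of either probe orientation. The binding step lasted 1 h in 1× PBS with 1% milk, 0.2 mg/ml BSA, 0.5% salmon testes DNA and 0.03% Triton X-100, using GST-tagged P. falciparum DNA-binding domains expressed in E. coli on an Agilent 4 × 180k array of primer-extended double-stranded 36-bp intergenic genomic probes plus negative controls. Alexa488 anti-GST antibody and a 488 nm scan detected bound protein.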

| Sequence | gcPBM binding intensity (ln) |
| --- | --- |
| ACATGTAAATGGAAAAGTACTAATAACTTGTATTGG [XGTACX_site5181] | 6.98 |
| TTATTTTAATATAAAATACACACTACTATTATAAAT [CACACA_site1470] | 6.85 |
| TAATTATTAAAACATTGTACATTATTATAAACAATT [XGTACX_site4489] | 6.88 |
| ATATATAAATATATTACACACTTTTTCTTTTTTTTT [CACACA_site7332] | 6.93 |
| TTTTCCATAAGAATTACACACAGAAAGGATAAGTAT [CACACA_site105] | 7.12 |
| AAACAGCATGGTATACCTATAAAATATATATACTAA [GTGCAC_negctrl_site39] | 6.96 |
| CTTATATTAATTATTACACACATATTTATAAATGCA [CACACA_site6501] | 7.2 |
| ATTATCCATGCATTTACACACACACTAAAAAAAATT [CACACA_site7848] | 7.89 |
| ATGTATATATATTTGTGTACATATTTAGGAAATAAA [XGTACX_site2904] | 7.1 |
| AATTAAATTTATATGAATGTCAATTATATTGTTATA [XGTACX_negctrl_site261] | 6.68 |
| TTGAATTAAAAACATACATGCATATATATATATATA [TGCATGCA_site319] | 9.49 |
| TTATAAAATGGGCAAACACACACAAAAAAAAGATAT [CACACA_site8476] | 7.27 |
| AATAAATTACTATGTACACACATAAGAGTATAAATA [CACACA_site6940] | 7.07 |
| AAAAAGTTACATGGTGGTACTCAAATAAAATATTCT [XGTACX_site5993] | 6.94 |
| TTTTTTTTTTTTTGATGTACATAAATTAAGAATTAT [XGTACX_site7789] | 7.04 |
| AATATATCTTTTTACGGCAACCATATTTTTCCCATT [CACACA_negctrl_site963] | 7 |
| TTTATATGTGAAAAAAGTACAAGGAAAAAATTAAAC [XGTACX_site7269] | 7.59 |
| TATTATGTTATATATTGTACATGTTTATTGAAACAA [XGTACX_site5605] | 6.91 |
| TTTTTTTTAGTATGAACACACATATATATTATAAAA [CACACA_site2935] | 6.94 |
| TATTAACAAAATATAGCACACATAAATATATATTTA [CACACA_site8005] | 7.01 |
| AATATAATTATATGTGGTACAGAAATAATATAAAAT [XGTACX_site2366] | 7.63 |
| TTCTTTTTTTTTCTGGGTACATATATTCCAATCACT [XGTACX_site4770] | 7.6 |
| TTATAAAAGACAAAAGTGCATATATACATATGTATA | 8.27 |

| Sequence | gcPBM binding intensity (ln) |
| --- | --- |
| TATAACTTTTATAGGTGTACCCAATATTATATATAG [XGTACX_site7673] | 6.97 |
| CCATCTTTTTTACGATGTACAAGTATAAGGTATACG [XGTACX_site2697] | 7.04 |
| TTTATATGTTTTGTATTTTTAATAAATATTTTATTA [TGCATGCA_negctrl_site20] | 7.06 |
| TATATATAATAAGAAGGTACACGTAAGTAATAATTT [XGTACX_site934] | 7.23 |
| AAATAAATAAATTAACGTACATAATAACATTAATAT [XGTACX_site8567] | 6.99 |
| ATATATATATATGTATGTACACATATTTTTTAACTT [XGTACX_site431] | 9.31 |
| TGTAAAACCTCCTACACACACCAATTAACTATTCTA [CACACA_site7074] | 6.9 |
| TATATATATATTATTAGTACTTATTTTTTTTCATAT [XGTACX_site1279] | 8.58 |
| TTATATTATAGACACACACACAAAAAAAAAAAAAAA [CACACA_site3816] | 6.93 |
| TTATAATTTTAATGTGCACACAATTAAAATATTATA [CACACA_site5172] | 9.21 |
| TTTTGTTTATGTGTGCATTATATTATATTTTTTATT [TGCATGCA_negctrl_site146] | 7.83 |
| TATTGACAAAAAAAAAAAAGGTAAAAAAGAAAGAAA [GTGCAC_negctrl_site418] | 6.65 |
| TATAAATAAATATACACACACACATATAAATATGTA [CACACA_site6504] | 6.94 |
| TGTAAGAAATTGAGCGCACACATACATCTGTGGGAT [CACACA_site4945] | 7.02 |
| TAGTTGCACATGTATACACACAAAAAATATTTTATG [CACACA_site475] | 7.68 |
| AAAGAAAGGAATACGACACACAAAAAAAAAATATAT [CACACA_site1934] | 7.08 |
| AATAAATATAGGTACACACACAAATATGTACATATC [CACACA_site6976] | 7.22 |
| AAGTGGTTATAATCAACACACGTGGAATGTACTTTA [CACACA_site3700] | 6.85 |
| AAGAAACCATAATATGCATGCACATATTAATAAATA [TGCATGCA_site693] | 7.82 |
| CTACATACAAGAATTAAACACACACTAATTATAAAT [CACACA_site8986] | 7 |
| CCTCAATATTCACATACACACAATATCATCGAAGTA [CACACA_site1676] | 7.23 |
| GAAACGATTTAATACACACACGTATTATAGATATAT [CACACA_site6666] | 6.86 |
| AATAAGCATATACAAACATGCATACATATAAATAAA [TGCATGCA_site338] | 6.72 |

| Sequence | gcPBM binding intensity (ln) |
| --- | --- |
| TTTTTTTTTTTTTTGACACACATAATAAAATACAAA [CACACA_site3080] | 7.22 |
| TATATATTTGTAACGGGTACGTAGGTGTATATTCCA [XGTACX_site6028] | 7.19 |
| AGCCACGTGGTATATACACACATAATCAAATAAAAT [CACACA_site9364] | 6.87 |
| AAATATTTTAACGAGAGTACATAATAACAATTTATG [XGTACX_site3865] | 7 |
| GAAAGAATAAAATTTACACACATATATAAATACATA [CACACA_site5273] | 6.85 |
| AAAAAAAAAAAATACACACACACATATATATATATA [CACACA_site731] | 9.54 |
| TTTTTTTTTTTTTATTGTACTAAATTATAGAGGGGA [XGTACX_site2609] | 7.66 |
| ATAAAACAACACACTTGTACTAATTTTTTTTTTTTT [XGTACX_site8377] | 6.96 |
| TAATTTATAAGGTATAACAACAATTGCATCTATCAC [XGTACX_negctrl_site314] | 7.06 |
| TGAATAAATAGACACACACACATATATAAATATGTA [CACACA_site6159] | 6.95 |
| AACATACATAGACACACACACACACGCACACGCACA [CACACA_site6373] | 8.43 |
| GAAAATACGTTTAATCGTACATATATATAATATATA [XGTACX_site4243] | 7.21 |
| TATTTACCCTCATGTTGTACTTTTCATTCATTTTAT [XGTACX_site7794] | 7.21 |
| ACAAGTTTTTTTTTATCACACACAAAAAAAAAAATA [CACACA_site8377] | 7.29 |
| ATTAATTATAATGTATGTACATAACTTTTTTATATT [XGTACX_site5784] | 7.15 |
| TTTATTATTTTTAGGAGTACACAAAATAAAACAAAT [XGTACX_site8841] | 7.59 |
| TCTATAAAGGAATATACACACATATATAAATATGTA [CACACA_site6332] | 6.93 |
| AAAAACAGAAATGTAACACACAAAAATTCTATTTAT [CACACA_site4026] | 6.67 |
| TTTTGTTATAAATAATGTACATATTTATTTAAAATT [XGTACX_site6610] | 6.88 |
| TATAAAAATGTGCACACACACACATATTTATATTTA [CACACA_site6826] | 8.97 |
| AACCTTTATATGTAAAGTACAAAAAAGAGTAAAAAA [XGTACX_site5506] | 6.85 |
| AAAATCATTCCAAAGACATGCATTTTGCAAATAAAA [TGCATGCA_site461] | 6.75 |
| TATATTATATACCATTGTACATATAATATAGGTTCT [XGTACX_site7047] | 6.92 |

| Sequence | gcPBM binding intensity (ln) |
| --- | --- |
| AATATATGTATGTACGCATGTATGTATCTATGTATT [TGCATGCA_site389] | 7.5 |
| TTATAATTATATACATGTACATATAATACATATATA [XGTACX_site8904] | 7.03 |
| ATATGGGTAATGAATTGTACTCTTTCTTGTTGTTCT [XGTACX_site4487] | 6.94 |
| TGTAATAAATAGTACACACACACATATTTATATATC [CACACA_site6770] | 7.24 |
| GTATAATTTTCGTATTCACACAAGAATATACTACAT [CACACA_site4877] | 7.38 |
| GTATATTTATAGCCTTTATTATATTTAATATTATTA [TGCATGCA_negctrl_site26] | 7.01 |
| AGAAAAGTTTAATACAGTACATAAACAAAGTATAGG [XGTACX_site2386] | 7.04 |
| TATAATATTATATATAAACACACATACACATGTAAA [CACACA_site8631] | 7.04 |
| GTTATATTTTTTTATACACACTGGAATATATAAATA [CACACA_site4282] | 7.18 |
| ATAATTATATATTTATGTACGCATAAATATTTATAT [XGTACX_site5765] | 7.79 |
| ACCCAATTTTAAAATGAACACACATGTTTTTCTTAC [CACACA_site8246] | 7.04 |
| TATTTATTGTGATACTACTATTATTTTATGATTAAA [CACACA_negctrl_site284] | 6.93 |
| TTATATTATTTTTAATGTACTTTTTATGAATACAAA [XGTACX_site689] | 7.12 |
| TATATATAACTTTATTGTACAAAATATTATGTATTC [XGTACX_site981] | 7.03 |
| TTGTTTTATTATTCGATGCACTACAGAAATATATTC | 8.81 |
| TATACAACTTTATGAAGTACAAAAAGTTCTATATAT [XGTACX_site3866] | 6.99 |
| AACTATATCATTTATTTTATTTTTTAAATACATTTA [CACACA_negctrl_site183] | 6.91 |
| TAAGTATACTCATACACACACACACTAGAAAAAAAA [CACACA_site4397] | 7.08 |
| AGAGATACATAAAAAAGTACATATAAAATTTAGGAA [XGTACX_site7201] | 6.89 |
| TATTTATTTATATACACACACTTGTATAAAAAATGT [CACACA_site7048] | 7.04 |
